From patent publication US20190144558A1

B1: Antibody 58 (antibody, human IgG1, kappa)
heavy: [sequence of about 100 residues not given]GPPTYHTNYYYMDVWGKGTTVTVSS[sequence of human IgG1 constant region not given]
light: DIQMTQSPSSVSASVGDRVTITCRASQGISSWLAWYQQKPGKAPKLLIYAASSLQSGVPSRFSGSGSGTDFTLTISSLQPEDFATYYCQQTNSFPYTFGGGTKVEIKRTVAAPSVFIFPPSDEQLKSGTASVVCLLNNFYPREAKVQWKVDNALQSGNSQESVTEQDSKDSTYSLSSTLTLSKADYEKHKVYACEVTHQGLSSPVTKSFNRGEC
B2: Antibody 61 (antibody, human IgG1, kappa)
heavy: EVQLLESGGGLVQPGGSLRLSCAASGFTFSSYVMIWVRQAPGKGLEWVSSISGDSVTTYYADSVKGRFTISRDNSKNTLYLQMNSLRAEDTAVYYCAKGPPTYHTNYYYMDVWGKGTTVTVSS[sequence of human IgG1 constant region not given]
light: DIQMTQSPSSVSASVGDRVTITCRASQGISSWLAWYQQKPGKAPKLLIYAASSLQSGVPSRFSGSGSGTDFTLTISSLQPEDFATYYCQQTNSFPYTFGGGTKVEIKRTVAAPSVFIFPPSDEQLKSGTASVVCLLNNFYPREAKVQWKVDNALQSGNSQESVTEQDSKDSTYSLSSTLTLSKADYEKHKVYACEVTHQGLSSPVTKSFNRGEC

Target: human CD117 on CD117 expressing cells (Kasumi-1 cells; primary human CD34+ bone marrow cells) (human), P10721
Test: cell-based or functional assay

Binder | AUC Kasumi-1 Killing (AUC hIgG1 - AUC MAC ID#); IgG pre-incubated with anti-human Fab-saporin, Celltiter Glo
B1 | 97400
B2 | 78600
